Patent publication US10314820B2, “Imidazole-based heterocyclic compounds” (priority 2014, dated 2019)
The name of at least one read-out is uncertain.

Assays:
[1] = tested on: daptomycin-resistant Staphylococcus aureus (from MRSA, COL); type: cell-based; details: Table BB, MIC score
[2] = tested on: vancomycin-resistant Enterococcus faecium (ATCC51559); type: cell-based; details: Table BB; MIC score
[3] = tested on: penicillin-, erythromycin- and tetracycline-resistant Streptococcus pneumoniae (ATCC 700677), ARSP; type: cell-based; details: Table BB; MIC score
[4] = tested on: Staphylococcus aureus MSSA (Newman); assay: Broth microdilution MIC assay, MSSA; type: cell-based; details: MIC score; for Antibacterial activity Staphylococcus aureus (MSSA): Table AA; for antibacterial activity MSSA: Table BB
[5] = tested on: Mycobacterium smegmatis (mc(2)155, ATCC700084); assay: Broth microdilution MIC assay, Mycobacterium smegmatis; type: cell-based; details: Table BB; MIC score; 3 days incubation
[6] = tested on: Streptococcus pneumoniae (Chester, ATCC49619); assay: Broth microdilution MIC assay, Streptococcus pneumoniae; type: cell-based; details: MIC score; for Antibacterial activity Streptococcus pneumoniae: Table AA; for antibacterial activity SP: Table BB
[7] = tested on: Staphylococcus aureus MRSA (COL); type: cell-based; details: MIC score; for Antibacterial activity Staphylococcus aureus (MRSA): Table AA; for antibacterial activity MRSA: Table BB
[8] = tested on: Enterococcus faecalis (ATCC29212); assay: Broth microdilution MIC assay, Enterococcus faecalis; type: cell-based; details: Table BB; MIC score
[9] = tested on: vancomycin-resistant Enterococcus faecalis (ATCC51575); type: cell-based; details: Table BB; MIC score
[10] = tested on: Staphylococcus epidermidis (PCI 1200, ATCC12228); assay: Broth microdilution MIC assay, Staphylococcus epidermidis; type: cell-based; details: Table BB; MIC score
[11] = tested on: platensimycin-resistant Staphylococcus aureus (from MRSA, COL); type: cell-based; details: Table BB, MIC score
[12] = tested on: MRSA (COL) resistant to triclosan; details: Table BB, MIC score

SMILES	antibacterial activity MRSA strains with additional resistance to D [1]	antibacterial activity VREFm [2]	antibacterial activity ARSP [3]	Antibacterial activity Staphylococcus aureus (MSSA) [4]	antibacterial activity MSSA [4]	antibacterial activity MS [5]	Antibacterial activity Streptococcus pneumoniae [6]	antibacterial activity SP [6]	Antibacterial activity Staphylococcus aureus (MRSA) [7]	antibacterial activity MRSA [7]	antibacterial activity EFs [8]	antibacterial activity VREFs [9]	antibacterial activity SE [10]	antibacterial activity MRSA strains with additional resistance to P [11]	antibacterial activity MRSA strains with additional resistance to T [12]
Cc1nc(-c2ccc(-c3ccccc3OC(F)(F)F)o2)[nH]c1-c1ccccc1Cl [Compound 19]	3 (the compound has an MIC100 of 3-10 μg/ml)	1 (the compound has an MIC100 of 20-50 μg/ml or an MIC50 of <10 μg/ml)	3 (the compound has an MIC100 of 2-5 μg/ml)	1 (the compound has an MIC100 of 20-50 μg/ml or an MIC50 of <10 μg/ml)	1 (the compound has an MIC100 of 20-50 μg/ml or an MIC50 of <10 μg/ml)	2 (the compound has an MIC100 of 11-20 μg/ml)	4 (the compound has an MIC of 1 μg/ml or less for preventing streptococcal growth 100% (MIC100))	4 (the compound has an MIC of 1 μg/ml or less for preventing streptococcal growth 100% (MIC100))	1 (the compound has an MIC100 of 20-50 μg/ml or an MIC50 of <10 μg/ml)	1 (the compound has an MIC100 of 20-50 μg/ml or an MIC50 of <10 μg/ml)					
Cc1nc(-c2ccc(-c3cccc(OC(F)(F)F)c3)o2)[nH]c1-c1ccc(F)cc1 [Compound 37]		1 (the compound has an MIC100 of 20-50 μg/ml or an MIC50 of <10 μg/ml)	3 (the compound has an MIC100 of 2-5 μg/ml)	3 (the compound has an MIC100 of 3-10 μg/ml)	3 (the compound has an MIC100 of 3-10 μg/ml)	2 (the compound has an MIC100 of 11-20 μg/ml)	4 (the compound has an MIC of 1 μg/ml or less for preventing streptococcal growth 100% (MIC100))	4 (the compound has an MIC of 1 μg/ml or less for preventing streptococcal growth 100% (MIC100))	3 (the compound has an MIC100 of 3-10 μg/ml)	3 (the compound has an MIC100 of 3-10 μg/ml)	1 (the compound has an MIC100 of 20-50 μg/ml or an MIC50 of <10 μg/ml)	1 (the compound has an MIC100 of 20-50 μg/ml or an MIC50 of <10 μg/ml)	1 (the compound has an MIC100 of 20-50 μg/ml or an MIC50 of <10 μg/ml)		
Cc1nc(-c2ccc(-c3ccc(Cl)c(OC(F)(F)F)c3)o2)[nH]c1-c1ccc(Cl)cc1 [Compound 44]		2 (the compound has an MIC100 of 11-20 μg/ml)		4 (the compound has an MIC of 1 μg/ml to 3 μg/ml for preventing staphylococcal growth 100% (MIC100))	4 (the compound has an MIC of 1 μg/ml to 3 μg/ml for preventing bacterial growth 100% (MIC100))	1 (the compound has an MIC100 of 20-50 μg/ml or an MIC50 of <10 μg/ml)	4 (the compound has an MIC of 1 μg/ml or less for preventing streptococcal growth 100% (MIC100))	4 (the compound has an MIC of 1 μg/ml or less for preventing streptococcal growth 100% (MIC100))	2 (the compound has an MIC100 of 11-20 μg/ml)	2 (the compound has an MIC100 of 11-20 μg/ml)	1 (the compound has an MIC100 of 20-50 μg/ml or an MIC50 of <10 μg/ml)	2 (the compound has an MIC100 of 11-20 μg/ml)	2 (the compound has an MIC100 of 11-20 μg/ml)		
Cc1[nH]c(-c2ccc(-c3ccc(C(F)(F)F)cc3)o2)nc1-c1ccc(Cl)cc1 [Compound 47]		1 (the compound has an MIC100 of 20-50 μg/ml or an MIC50 of <10 μg/ml)	4 (the compound has an MIC of 1 μg/ml or less for preventing streptococcal growth 100% (MIC100))	4 (the compound has an MIC of 1 μg/ml to 3 μg/ml for preventing staphylococcal growth 100% (MIC100))	4 (the compound has an MIC of 1 μg/ml to 3 μg/ml for preventing bacterial growth 100% (MIC100))	3 (the compound has an MIC100 of 3-10 μg/ml)	4 (the compound has an MIC of 1 μg/ml or less for preventing streptococcal growth 100% (MIC100))	4 (the compound has an MIC of 1 μg/ml or less for preventing streptococcal growth 100% (MIC100))	3 (the compound has an MIC100 of 3-10 μg/ml)	3 (the compound has an MIC100 of 3-10 μg/ml)	1 (the compound has an MIC100 of 20-50 μg/ml or an MIC50 of <10 μg/ml)	1 (the compound has an MIC100 of 20-50 μg/ml or an MIC50 of <10 μg/ml)	3 (the compound has an MIC100 of 3-10 μg/ml)		
Cc1[nH]c(-c2ccc(-c3ccc(OC(F)(F)F)cc3Cl)o2)nc1-c1ccc(F)cc1 [Compound 51]	4 (the compound has an MIC of 1 μg/ml to 3 μg/ml for preventing bacterial growth 100% (MIC100))		3 (the compound has an MIC100 of 2-5 μg/ml)	2 (the compound has an MIC100 of 11-20 μg/ml)	2 (the compound has an MIC100 of 11-20 μg/ml)		3 (the compound has an MIC100 of 2-5 μg/ml)	3 (the compound has an MIC100 of 2-5 μg/ml)	1 (the compound has an MIC100 of 20-50 μg/ml or an MIC50 of <10 μg/ml)	1 (the compound has an MIC100 of 20-50 μg/ml or an MIC50 of <10 μg/ml)			1 (the compound has an MIC100 of 20-50 μg/ml or an MIC50 of <10 μg/ml)	2 (the compound has an MIC100 of 11-20 μg/ml)	3 (the compound has an MIC100 of 3-10 μg/ml)
FC(F)(F)Oc1ccccc1-c1ccc(-c2nc(Cl)c(-c3ccccc3)[nH]2)o1 [Compound 64]	4 (the compound has an MIC of 1 μg/ml to 3 μg/ml for preventing bacterial growth 100% (MIC100))		3 (the compound has an MIC100 of 2-5 μg/ml)	2 (the compound has an MIC100 of 11-20 μg/ml)	3 (the compound has an MIC100 of 3-10 μg/ml)	1 (the compound has an MIC100 of 20-50 μg/ml or an MIC50 of <10 μg/ml)	4 (the compound has an MIC of 1 μg/ml or less for preventing streptococcal growth 100% (MIC100))	4 (the compound has an MIC of 1 μg/ml or less for preventing streptococcal growth 100% (MIC100))		1 (the compound has an MIC100 of 20-50 μg/ml or an MIC50 of <10 μg/ml)			1 (the compound has an MIC100 of 20-50 μg/ml or an MIC50 of <10 μg/ml)		
FC(F)(F)Oc1ccccc1-c1ccc(-c2nc(-c3ccc(Cl)cc3Cl)c[nH]2)o1 [Compound 68]	4 (the compound has an MIC of 1 μg/ml to 3 μg/ml for preventing bacterial growth 100% (MIC100))		3 (the compound has an MIC100 of 2-5 μg/ml)	2 (the compound has an MIC100 of 11-20 μg/ml)	2 (the compound has an MIC100 of 11-20 μg/ml)		2 (the compound has an MIC100 of 6-10 μg/ml)	2 (the compound has an MIC100 of 6-10 μg/ml)	2 (the compound has an MIC100 of 11-20 μg/ml)	2 (the compound has an MIC100 of 11-20 μg/ml)			3 (the compound has an MIC100 of 3-10 μg/ml)	1 (the compound has an MIC100 of 20-50 μg/ml or an MIC50 of <10 μg/ml)	
CN(C)Cc1[nH]c(-c2ccc(-c3ccccc3C(F)(F)F)o2)nc1-c1ccccc1 [Compound 70]	3 (the compound has an MIC100 of 3-10 μg/ml)	2 (the compound has an MIC100 of 11-20 μg/ml)			1 (the compound has an MIC100 of 20-50 μg/ml or an MIC50 of <10 μg/ml)			3 (the compound has an MIC100 of 2-5 μg/ml)		1 (the compound has an MIC100 of 20-50 μg/ml or an MIC50 of <10 μg/ml)	2 (the compound has an MIC100 of 11-20 μg/ml)	2 (the compound has an MIC100 of 11-20 μg/ml)	2 (the compound has an MIC100 of 11-20 μg/ml)		1 (the compound has an MIC100 of 20-50 μg/ml or an MIC50 of <10 μg/ml)
